From article PMC4336329 (PLoS ONE, 2015)
Among all 310,000 compounds or so, about 14,000 (4.5%) showed an effect of 50% or more. The effect is printed as a negative number. Some of the results follow.

molecular target: human ether-à-go-go-related gene (hERG) potassium channel (human, UniProt Q12809); assay: primary screen, population patch clamp on CHO cells stably expressing hERG
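Note: peak tail current of the secondary pulse compared with the same well before compound.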

Sequence of human ether-à-go-go-related gene (hERG) potassium channel (Q12809 whole entry, looked up): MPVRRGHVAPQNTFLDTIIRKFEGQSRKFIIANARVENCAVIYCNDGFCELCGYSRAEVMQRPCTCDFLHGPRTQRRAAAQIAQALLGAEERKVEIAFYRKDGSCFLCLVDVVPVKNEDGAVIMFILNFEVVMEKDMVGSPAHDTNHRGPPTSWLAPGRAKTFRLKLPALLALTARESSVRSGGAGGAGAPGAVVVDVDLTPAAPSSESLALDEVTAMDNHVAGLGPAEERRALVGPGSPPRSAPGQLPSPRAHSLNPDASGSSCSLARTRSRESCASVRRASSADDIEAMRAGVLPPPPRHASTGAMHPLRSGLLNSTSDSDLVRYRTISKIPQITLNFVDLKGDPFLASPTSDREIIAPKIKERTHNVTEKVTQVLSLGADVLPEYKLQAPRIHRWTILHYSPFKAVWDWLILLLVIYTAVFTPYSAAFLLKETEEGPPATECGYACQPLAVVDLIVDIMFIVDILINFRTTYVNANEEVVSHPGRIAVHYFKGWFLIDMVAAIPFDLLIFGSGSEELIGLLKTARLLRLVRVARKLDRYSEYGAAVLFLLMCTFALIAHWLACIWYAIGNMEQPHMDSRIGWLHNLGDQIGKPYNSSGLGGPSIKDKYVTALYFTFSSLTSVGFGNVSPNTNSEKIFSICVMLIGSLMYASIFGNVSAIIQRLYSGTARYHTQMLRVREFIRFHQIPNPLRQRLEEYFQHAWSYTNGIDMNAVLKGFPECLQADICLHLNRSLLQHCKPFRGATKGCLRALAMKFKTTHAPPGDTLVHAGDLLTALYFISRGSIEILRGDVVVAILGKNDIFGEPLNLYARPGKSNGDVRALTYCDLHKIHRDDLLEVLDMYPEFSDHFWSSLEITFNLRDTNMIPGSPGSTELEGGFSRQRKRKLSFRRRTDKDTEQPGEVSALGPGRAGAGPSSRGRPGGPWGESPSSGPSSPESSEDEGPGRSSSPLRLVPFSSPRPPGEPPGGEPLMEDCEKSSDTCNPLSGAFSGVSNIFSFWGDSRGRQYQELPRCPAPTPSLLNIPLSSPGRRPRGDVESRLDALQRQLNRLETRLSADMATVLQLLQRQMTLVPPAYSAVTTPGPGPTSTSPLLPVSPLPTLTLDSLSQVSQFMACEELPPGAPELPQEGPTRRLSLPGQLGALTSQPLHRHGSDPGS

| Compound | hERG current change (%, negative = inhibition) at 10uM [%] |
| --- | --- |
| COc1cccc(/C=N/Nc2nc(Nc3ccc([N+](=O)[O-])cc3)nc(N3CCCC3)n2)c1O | 13.8 |
| CCc1ccccc1NC(=O)CN1C(=O)c2ccccc2S1(=O)=O | 17.3 |
| COc1ccc(C(=O)COC(=O)c2cc(=O)[nH]c3ccccc23)c(OC)c1 | 8.57 |
| C=CCn1cccc(C(=O)Nc2cc(OC)cc(OC)c2)c1=O | -2.4 |
| Cn1c(SCC(=O)N2CCCc3ccccc32)nnc1-c1cccs1 | -26.1 |
| CC(=O)C1C(c2ccc3ncccc3c2)NC(=O)NC1(O)C(F)(F)F (stereo not drawn) | 10.9 |
| CC(=O)Nc1cccc(NC(=O)c2ccccc2OCc2c(C)noc2C)c1 | -13.9 |
| CN(C)S(=O)(=O)c1cccc(NC(=O)CCc2c[nH]c3ccccc23)c1 | -21.8 |
| C=CCNC(=O)CC(=O)N/N=C/c1ccc(F)cc1 | -3.54 |
| Cc1nc2cc(NC(=O)COc3ccc(C#N)cc3)ccc2n1-c1ccccc1 | -21.1 |
| CO/N=C(\N)c1nonc1N | 0.407 |
| CCCCn1c(N)c(N(CCOC)C(=O)c2c(-c3ccccc3)noc2C)c(=O)[nH]c1=O | 2.61 |
| CCOC(=O)c1c(C)[nH]c(C(=O)CN2CC(C)OC(C)C2)c1C (stereo not drawn) | -4.57 |
| COc1ccc(-c2nnn3c2nc(NCc2ccccc2)c2ccccc23)cc1 | 12.4 |
| COc1ccc(C(=O)NCCS(=O)(=O)N2CCC3(CC2)OCCO3)cc1 | -9.02 |
| CN(C)S(=O)(=O)Oc1ccccc1C(=O)Nc1ccc(F)cc1F | 2.34 |
| NC(=O)CSc1nnc(-c2cc(-c3cccs3)nc3ccccc23)o1 | 6.01 |
| O=C(CCN1C(=O)/C(=C\c2ccccc2F)SC1=S)Nc1ccc(C(=O)O)c(O)c1 | -2.08 |
| CCC(C)NC(=O)CC(c1ccccc1)c1cc(C)ccc1O (stereo not drawn) | -5.6 |

| Compound | hERG current change (%, negative = inhibition) at 10uM [%] |
| --- | --- |
| COCCNC(=O)C(c1ccc(C)cc1)N(C(=O)CCC(=O)Nc1ccccn1)c1cccc(C)c1 (stereo not drawn) | 3.26 |
| CC(C)(CO)Nc1ncnc2onc(-c3ccc(F)cc3)c12 | 8.52 |
| Cc1cc(NS(=O)(=O)c2ccc(NC(=O)c3cnc4scc(C)n4c3=O)cc2)nc(C)n1 | -7.41 |
| Cc1ccc(NC(=S)N(Cc2cccc(Br)c2)CC2CCC(C(=O)O)CC2)cc1 (stereo not drawn) | 6.73 |
| CC(=O)Nc1ncc(Cc2cc(Cl)ccc2Cl)s1 | -1.4 |
| CSCC(C)N1CCC(N2CCC(C(=O)NCc3ccccn3)CC2)CC1 (stereo not drawn) | -9.59 |
| COc1cccc(NC(=O)CN2C(=O)CSc3nc(C)cc(C)c32)c1 | 8.83 |
| O=C(Cc1ccccc1)Nc1ccc(N2CCN(Cc3ccccc3F)CC2)cc1 | 0.561 |
| CCCC(=O)c1cc2c(cc1NC(=O)c1ccccc1F)OCCO2 | 7.12 |
| Oc1ccc(/C=N/n2c(COc3ccccc3)n[nH]c2=S)c(O)c1 | 16.6 |
| Cc1cc(N/C(=N/S(=O)(=O)c2cc(F)ccc2F)c2ccccc2)n(-c2ccccc2)n1 | 36 |
| CCCC12CN3CN(C1)CC(CCC)(C3)C2O (stereo not drawn) | -5.84 |
| COc1ccc(N=C2C(=O)Nc3ccc(C)c(Br)c32)cc1 | 1.53 |
| CCCc1cc(C(=O)NNC(=S)NC2CCCCC2)cs1 | 8.95 |
| CCn1cc(CN2CCN(Cc3cccc(OC)c3)C(CCO)C2)c(C)n1 (stereo not drawn) | -14.4 |
| COc1ccc(O)c(/C=N/NC(=O)CN2CCS(=O)(=O)CC2)c1 | 18.7 |
| COc1cc(C)ccc1OCCCOc1c(Cl)cccc1Cl | 7.68 |
| Cn1cccc1C(=O)N/N=C/c1c(Cl)cccc1Cl | 3.26 |
| O=C(OCCN1C(=O)c2ccccc2C1=O)c1cccc(OC(F)F)c1 | -6.56 |

| Compound | hERG current change (%, negative = inhibition) at 10uM [%] |
| --- | --- |
| Cc1nc2c(C#N)cnn2c2c1CCNN2C | -1.38 |
| [O-][n+]1onc2c1CCc1nnccc1-2 | 9.85 |
| O=C1CCCC2=C1C(c1cccs1)n1ncnc1N2 (stereo not drawn) | 4.95 |
| O=C(c1sc2cc([N+](=O)[O-])ccc2c1Cl)N1CCOCC1 | -32.8 |
| CCN(CC)CCCNC(=S)N(Cc1cccnc1)Cc1cc2cc(C)cc(C)c2[nH]c1=O | 22.9 |
| O=C(NCc1ccco1)C1CCN(Cc2ccc(F)cc2)CC1.O=C(O)C(=O)O | -15.4 |
| COC(=O)C1=C(c2ccccc2OCc2ccccc2)C[C@@H]2CC[C@H]1N2C(=O)NCCc1ccc(F)cc1 | 5.49 |
| Cc1ccc(CNC(=O)c2cc(=O)c3ccccc3o2)cc1 | 18.8 |
| Cc1ccc(NC(=O)c2ccc(CSc3ccccn3)cc2)c(O)c1 | 18.4 |
| CC(C)(C)c1ccc(C(=O)NN2C(=O)CSC2=S)cc1 | 12.9 |
| COC(=O)CSc1nc2nc(C)c(Br)cc2[nH]1 | 0.94 |
| CCCC(=O)OCC(=O)Nc1ccc(OC(F)F)cc1 | -18.1 |
| COc1ccc(NC(=O)CSc2nccn2C)c([N+](=O)[O-])c1 | -2.64 |
| COc1cccc(CCNC(=O)CCc2nnc(-c3cc(C)oc3C)o2)c1 | -7.06 |
| NNc1nnc2c3cc(F)ccc3n(CCc3ccccc3)c2n1 | -31.3 |
| CCOC(=O)C1=C(C)NC2=C(C(=O)CC(c3cccs3)C2)C1c1cccs1 (stereo not drawn) | -1.6 |
| CCCNC(=O)c1ccc2c(c1)C1C3CCC(C3)C1C(c1ccccc1)N2 (stereo not drawn) | 3.72 |
| Cc1cc(C)n(-c2nc(Nc3ccccc3C)nc(-n3nc(C)cc3C)n2)n1 | 10.4 |
| Cc1cccc(NC(=O)CN2C(=O)S/C(=C\c3cccn3-c3cccc(C(=O)O)c3)C2=O)c1 | 2.3 |
